Assay results published in PubChem BioAssay (NCI).
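Step 1: Grow cells in 96-well plates. Step 2: Expose to compound for 48 hours at 5 concentrations. Step 3: Interpolate endpoints linearly; if unreached, use highest concentration. GI50 = concentration required for 50% inhibition of growth.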 Certain results were filed several times, with different values. The other results are left out here. An entry can have further records. The tests behind the records often covered other concentration ranges, which the source does not state; some values may only mark the edge of a range.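 Definition used: TGI = concentration required for complete inhibition of growth.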

Legend:
Assay in all cases: NCI tumour cell line growth inhibition, 48 h
[1] = test system: NCI-H522 lung
[2] = test system: HL-60(TB) leukemia
[3] = test system: SR leukemia
[4] = test system: UACC-62 melanoma
[5] = test system: K-562 leukemia
[6] = test system: SNB-75 CNS
[7] = test system: SNB-19 CNS
[8] = test system: CCRF-CEM leukemia
[9] = test system: M14 melanoma
[10] = test system: MOLT-4 leukemia

## O=C(NNc1nc2cc(F)cc(F)c2n2cccc12)c1cccnn1
[1]
  TGI: 11.5 µM and 940 nM
[2]
  TGI: 30 µM and 1.12 µM
[3]
  TGI: 30 µM and 859 nM
[4]
  TGI: 1.22 µM and 13.5 µM
[5]
  TGI: 30 µM and 1.31 µM
[6]
  GI50: 120 nM and 1.27 µM
[7]
  TGI: 9.21 µM and > 100 µM
[8]
  TGI: 30 µM and 362 nM
[9]
  TGI: 755 nM and 10.2 µM
[10]
  TGI: 30 µM and 1.74 µM
